“And” between values parts separate entries of the source, which are not always exact repeats. Identical values can stand only once. The shares of active, inactive and inconclusive entries below differ from those in the screen. A potency beside an inconclusive call is a rough fit, not a confirmed value. Where a structure was tested more than once in an assay, its records may differ in their call. The source made the active and inactive calls. The call rests on the fitted dose curve; in most records, active means well fitted inhibition curve with a large enough effect in the signal ratio in the repeat runs (not every such curve was filed as active); inconclusive means weak or mixed curves; inactive means flat fitted curve, though single readings scatter; the % refers to the signal ratio.
biological target: Progesterone receptor (Homo sapiens) (UniProt P06401); assay: qHTS assay to identify small molecule antagonists of the progesterone receptor (PR) signaling pathway (AID 1346795); conditions: PR-UAS-bla HEK293T, beta-lactamase FRET ratio, 16 h; activity change, negative = inhibition: at 92.4 µM (top of the series) unless noted
Procedure, shortened: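 Inhibition of R5020-induced (1 nM final) beta-lactamase reporter signal in PR-UAS-bla HEK293T cells was scored by FRET fluorescence after overnight (16 hr) compound treatment.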
On the % scale 0 is the no-effect control and ±100 the full control effect; potency means the concentration at half of the fitted maximal effect; tags describe the fitted curve by direction and shape.

Chain of UniProt P06401 (P06401 whole entry, looked up): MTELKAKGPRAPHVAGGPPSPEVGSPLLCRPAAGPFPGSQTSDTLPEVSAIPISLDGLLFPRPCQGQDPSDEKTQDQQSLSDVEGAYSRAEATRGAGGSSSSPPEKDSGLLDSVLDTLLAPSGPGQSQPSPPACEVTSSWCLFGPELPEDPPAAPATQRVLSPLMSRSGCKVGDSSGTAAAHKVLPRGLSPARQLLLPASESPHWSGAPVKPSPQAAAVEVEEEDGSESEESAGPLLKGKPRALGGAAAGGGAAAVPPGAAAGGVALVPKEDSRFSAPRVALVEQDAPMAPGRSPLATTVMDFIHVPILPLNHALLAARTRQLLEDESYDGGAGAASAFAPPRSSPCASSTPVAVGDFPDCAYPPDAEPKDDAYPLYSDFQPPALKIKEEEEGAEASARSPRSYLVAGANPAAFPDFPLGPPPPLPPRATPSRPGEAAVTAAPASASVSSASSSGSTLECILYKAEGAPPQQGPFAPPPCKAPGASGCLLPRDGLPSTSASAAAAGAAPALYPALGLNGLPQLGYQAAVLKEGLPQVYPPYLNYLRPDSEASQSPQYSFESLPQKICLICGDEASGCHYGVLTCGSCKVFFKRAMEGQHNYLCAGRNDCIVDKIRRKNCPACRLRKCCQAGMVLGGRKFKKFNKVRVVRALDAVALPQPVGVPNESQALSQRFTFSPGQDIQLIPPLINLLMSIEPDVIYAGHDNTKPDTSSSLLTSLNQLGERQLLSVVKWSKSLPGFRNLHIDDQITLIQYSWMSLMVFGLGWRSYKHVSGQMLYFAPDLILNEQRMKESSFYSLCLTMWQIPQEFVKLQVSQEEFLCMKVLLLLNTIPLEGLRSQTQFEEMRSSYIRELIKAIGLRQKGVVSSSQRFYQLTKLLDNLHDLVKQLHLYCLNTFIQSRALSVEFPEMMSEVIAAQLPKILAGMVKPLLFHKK

Row | SMILES | Potency | activity change, negative = inhibition
1 | O=C1CCCc2c1cc1ccc3cccc4ccc2c1c34 | active: 3.48 µM | –
2 | C[C@]1(Cn2ccnn2)[C@H](C(=O)O)N2C(=O)C[C@H]2S1(=O)=O | inconclusive: 0.944 µM [full curve] | –
3 | NC(=O)c1cccc([N+](=O)[O-])c1 | – | inactive: 8.51%
4 | CC1(C)C(C=C(Cl)Cl)C1C(=O)OCc1cccc(Oc2ccccc2)c1 (stereo not given) | – | inconclusive: -41.4% and inconclusive: -31%
5 | O=C(OCC1CO1)C1CCCCC1C(=O)OCC1CO1 (stereo not given) | – | inconclusive: -25.5%
6 | CN1CCN(Cc2cc(-c3ccc4[nH]c(=O)oc4c3)co2)[C@@H](c2ccc(F)cc2)C1 | active: 46.7 µM | –
7 | CO[C@H]1O[C@H](CO)[C@@H](O)[C@H](O)[C@H]1O | – | inactive: 12.1%
8 | CCCCC(=O)N(C)C | inconclusive: 67.7 µM [rising, partial curve, poor fit] | –
9 | CCCCCCC1CCCC(=O)O1 (stereo not given) | inconclusive: 68.6 µM [rising, single point] | –
10 | O=C(c1ccccc1)C1CCC1 | – | inconclusive: 11.1%
11 | Clc1ccc(Sc2cc(Cl)c(Cl)cc2Cl)cc1 | inconclusive: 66.8 µM and active: 24.3 µM | –
12 | NC1CCN(c2nc3c(cc2F)c(=O)c(C(=O)O)cn3-c2ccc(F)cc2F)C1 (stereo not given) | inconclusive: 10.6 µM [rising, full curve] | –
13 | Cc1ccc(-n2nc(C(C)(C)C)cc2NC(=O)Nc2ccc(OCCN3CCOCC3)c3ccccc23)cc1 | – | inconclusive: -25.3% [at 42.5 µM]
14 | CCc1cc2cc(OC)c(OC)cc2c(Cc2ccccc2)n1 | active: 16.8 µM | –
15 | CCC1CCC(CCC(=O)O)C1 (stereo not given) | inconclusive: 39.4 µM [rising, partial curve] | –
16 | C/C=C(\C)C(=O)OCCC(C)CCC=C(C)C (stereo not given) | – | inactive: 3.6%
17 | CCCCCC(C)OC(=O)COc1ccc(Cl)c2cccnc12 (stereo not given) | active: 54.5 µM | –
18 | CCCOc1ccc2c(c1)CC[C@@H]1[C@@H]2CC[C@]2(C)C(OC)CC[C@@H]12 (stereo not given in full) | active: 15 µM | –
19 | O=C(Nc1ccccc1)Nc1ccccc1 | inconclusive: 30.8 µM | –
20 | O=S(=O)(O)CO | – | inactive: 11.3%
21 | CC1=CC(=O)CC(C)(C)C1(O)/C=C/C(C)=C\C(=O)O (stereo not given) | – | inconclusive: 5.44%
22 | CC(C)(C)C(O)/C=C/c1ccc2c(c1)OCO2 (stereo not given) | active: 23.7 µM | –
23 | CCCN1CCCC[C@H]1C(=O)Nc1c(C)cccc1C | – | inconclusive: 13.4% [at 42.5 µM]
24 | CC1(C)[C@@H](O)CC[C@]2(C)[C@H]3C(=O)C=C4[C@@H]5C[C@@](C)(C(=O)O)CC[C@]5(C)CC[C@@]4(C)[C@]3(C)CC[C@@H]12 | active: 60.4 µM | –
25 | CCCCC(CC)COC(=O)CCCCCCCC(=O)OCC(CC)CCCC (stereo not given) | active: 8.63 µM and inactive | –

Source: PubChem BioAssay (Tox21)
